# In the supplement of paper PMC8948288:
# The sequences are guide strands of siRNAs; only the seed at positions 2 to 7 varies.
# Columns and labels:
# H4 = test: cell viability relative to siNT1 (ATP content); H4 human neuroglioma and GL261 mouse glioma; higher = less toxic; details: siRNA concentration 10 nM; 96 h; human
# Procedure: (§1)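 Arrayed screen of all 4096 6mer seeds. Each seed sits at guide-strand positions 2-7 of a neutral 19mer siRNA backbone (siNT1-based, passenger strand 2'-O-methyl modified at positions 1-2 to block RISC loading, 3' DNA overhangs). The guide strand is built here as U + seed + ACAUGUAAACCA. Cells were reverse transfected in triplicate in 384-well plates (H4 at 10 nM, GL261 at 25 nM) with Lipofectamine RNAiMAX. Viability was read as ATP content (CellTiter-Glo) 96 h after transfection and normalised to siNT1 (%).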
# GL261 = test: as above; details: siRNA concentration 25 nM; 96 h; mouse
# Procedure: as §1
# 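Also: cells reverse transfected with siRNA duplexes via lipid reagent, ATP read by luminescence, triplicate wells, values scaled to mean viability with non-targeting control siNT1.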
Sequence,cell viability (H4) [%],cell viability (GL261) [%]
UACGAAGACAUGUAAACCA,82.3,69
UACGAAUACAUGUAAACCA,97.6,58.6
UACGACAACAUGUAAACCA,89.6,63.8
UACGACCACAUGUAAACCA,68.6,44.6
UACGACGACAUGUAAACCA,90,58.6
UACGACUACAUGUAAACCA,64.2,55
UACGAGAACAUGUAAACCA,79.6,57.9
UACGAGCACAUGUAAACCA,75.7,39.9
UACGAGGACAUGUAAACCA,69.6,63
UACGAGUACAUGUAAACCA,83.2,36.6
UACGAUAACAUGUAAACCA,96.3,57.5
UACGAUCACAUGUAAACCA,80,69.4
UACGAUGACAUGUAAACCA,77.9,59.3
UACGAUUACAUGUAAACCA,104,54.9
UACGCAAACAUGUAAACCA,116,68
UACGCACACAUGUAAACCA,89,46.2
UACGCAGACAUGUAAACCA,74.3,62.6
UACGCAUACAUGUAAACCA,105,45.7
UACGCCAACAUGUAAACCA,82.2,57.4
UACGCCCACAUGUAAACCA,62.2,35
UACGCCGACAUGUAAACCA,106,63.9
UACGCCUACAUGUAAACCA,89.9,44.4
UACGCGAACAUGUAAACCA,110,60.9

Sequence,cell viability (H4) [%],cell viability (GL261) [%]
UACGCGCACAUGUAAACCA,89.6,45.6
UACGCGGACAUGUAAACCA,67.4,39.9
UACGCGUACAUGUAAACCA,76.9,58.3
UACGCUAACAUGUAAACCA,86.8,65.2
UACGCUCACAUGUAAACCA,92.2,25.9
UACGCUGACAUGUAAACCA,105,68.3
UACGCUUACAUGUAAACCA,116,59.1
UACGGAAACAUGUAAACCA,96.8,59.4
UACGGACACAUGUAAACCA,50.5,28.5
UACGGAGACAUGUAAACCA,81.4,61.7
UACGGAUACAUGUAAACCA,84.2,54.1
UACGGCAACAUGUAAACCA,66.9,63.4
UACGGCCACAUGUAAACCA,55.3,18.2
UACGGCGACAUGUAAACCA,78.5,52
UACGGCUACAUGUAAACCA,37.9,35.9
UACGGGAACAUGUAAACCA,80.6,56.8
UACGGGCACAUGUAAACCA,57.9,17.8
UACGGGGACAUGUAAACCA,51.9,41.7
UACGGGUACAUGUAAACCA,59,36.5
UACGGUAACAUGUAAACCA,80.3,52.7
UACGGUCACAUGUAAACCA,40.7,28.4
UACGGUGACAUGUAAACCA,94.3,52.7
UACGGUUACAUGUAAACCA,68.4,38.9

Sequence,cell viability (H4) [%],cell viability (GL261) [%]
UACGUAAACAUGUAAACCA,84.7,74.3
UACGUACACAUGUAAACCA,72,62.4
UACGUAGACAUGUAAACCA,99.3,60.3
UACGUAUACAUGUAAACCA,91.2,61.3
UACGUCAACAUGUAAACCA,80.4,59
UACGUCCACAUGUAAACCA,48.8,24.6
UACGUCGACAUGUAAACCA,70.9,65.7
UACGUCUACAUGUAAACCA,64.8,52.1
UACGUGAACAUGUAAACCA,99.1,51.6
UACGUGCACAUGUAAACCA,57.7,48.8
UACGUGGACAUGUAAACCA,73,58.8
UACGUGUACAUGUAAACCA,61.4,50.3
UACGUUAACAUGUAAACCA,84.7,64.9
UACGUUCACAUGUAAACCA,77.7,60.1
UACGUUGACAUGUAAACCA,110,69.5
UACGUUUACAUGUAAACCA,77.7,53.6
UACUAAAACAUGUAAACCA,98.1,72.4
UACUAACACAUGUAAACCA,78,52.2
UACUAAGACAUGUAAACCA,108,63.7
UACUAAUACAUGUAAACCA,116,73.7
UACUACAACAUGUAAACCA,91.3,70
UACUACCACAUGUAAACCA,63.3,32.4
UACUACGACAUGUAAACCA,69.1,67

Sequence,cell viability (H4) [%],cell viability (GL261) [%]
UACUACUACAUGUAAACCA,62,60.2
UACUAGAACAUGUAAACCA,108,60.7
UACUAGCACAUGUAAACCA,30.6,29
UACUAGGACAUGUAAACCA,75,62.7
UACUAGUACAUGUAAACCA,67.9,54.5
UACUAUAACAUGUAAACCA,113,69.3
UACUAUCACAUGUAAACCA,63.6,63.8
UACUAUGACAUGUAAACCA,102,63.1
UACUAUUACAUGUAAACCA,69.7,67.6
UACUCAAACAUGUAAACCA,100,52
UACUCACACAUGUAAACCA,78.9,40.4
UACUCAGACAUGUAAACCA,85.6,44.7
UACUCAUACAUGUAAACCA,80.4,51
UACUCCAACAUGUAAACCA,76.8,55.9
UACUCCCACAUGUAAACCA,60.1,35.8
UACUCCGACAUGUAAACCA,81.4,53.6
UACUCCUACAUGUAAACCA,17.2,21.5
UACUCGAACAUGUAAACCA,89.7,72.1
UACUCGCACAUGUAAACCA,59,25.6
UACUCGGACAUGUAAACCA,83.9,47
UACUCGUACAUGUAAACCA,77.8,43.4
UACUCUAACAUGUAAACCA,87.6,71.1
UACUCUCACAUGUAAACCA,52.7,38.4

Sequence,cell viability (H4) [%],cell viability (GL261) [%]
UACUCUGACAUGUAAACCA,81.5,58.4
UACUCUUACAUGUAAACCA,80.2,60.3
UACUGAAACAUGUAAACCA,80.6,67.8
UACUGACACAUGUAAACCA,57.5,26.4
UACUGAGACAUGUAAACCA,106,63.1
UACUGAUACAUGUAAACCA,68.3,58.3
UACUGCAACAUGUAAACCA,108,53.3
UACUGCCACAUGUAAACCA,48.4,18.7
UACUGCGACAUGUAAACCA,98.7,65.2
UACUGCUACAUGUAAACCA,52,36.3
UACUGGAACAUGUAAACCA,92.4,69.1
UACUGGCACAUGUAAACCA,24.4,32.6
UACUGGGACAUGUAAACCA,39.2,48
UACUGGUACAUGUAAACCA,65.1,69.7
UACUGUAACAUGUAAACCA,89.7,65.7
UACUGUCACAUGUAAACCA,55.6,62.7
UACUGUGACAUGUAAACCA,80.4,59.8
UACUGUUACAUGUAAACCA,104,51
UACUUAAACAUGUAAACCA,111,66.3
UACUUACACAUGUAAACCA,66.8,55.2
UACUUAGACAUGUAAACCA,115,69.6
